# Measurements as given in PubChem BioAssay AID2100 (National Center for Advancing Translational Sciences (NCATS), 2009).
# “And” between values parts separate entries of the source, which are not always exact repeats. Equal values may be shown once. About 1,200 (0.4%) of roughly 300,000 compounds were called active. Inconclusive results, whose numbers are uncertain, are shown with a selection of clear calls. Calls follow the shape of the dose curve; as a rule, active = well fitted inhibition curve with a large enough effect; inconclusive = small, poorly fitted or top-dose-only effect, or another doubt; inactive = no such curve, though single readings can be large or run the other way. A potency beside an inconclusive call is a rough fit, not a confirmed value.
# Molecular target: Lysosomal alpha-glucosidase (Homo sapiens) (UniProt P10253)
# Experiment: qHTS Assay for Inhibitors and Activators of Human alpha-Glucosidase Cleavage of Glycogen;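 as to activity change, negative = inhibition: 0% = full enzyme reaction and -100% = no-enzyme basal signal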
# Conditions: recombinant GAA, glycogen substrate, Amplex Red glucose oxidase fluorescence; activity change, negative = inhibition: at 76.4 µM (top of the series) unless noted
# Source text: NIH Chemical Genomics Center [NCGC] NIH Molecular Libraries Probe Production Centers Network [MLPCN] MLPCN Grant: R03 MH084841-01 Assay Submitter (PI): Wei Zheng NCGC Assay Overview: Alpha-glucosidase is responsible for the hydrolysis of terminal, non-reducing 1,4-linked alpha-D-glucose residues, which releases alpha-D-glucose. It is a lysosomal hydrolase that is required for the degradation of a small percentage (1-3%) of cellular glycogen in humans. Deficiency of this enzyme results in glycogen-storage disease type II (GSDII), also referred to as Pompe disease, an autosomal recessive disorder. Structurally normal glycogen is accumulated in the lysosomes and cytoplasm in affected patients, primarily in muscle tissues. Excessive glycogen storage within lysosomes may interrupt normal functioning of other organelles and leads to cellular injury. In turn, this leads to enlargement and dysfunction of the entire organ involved (eg: cardiomyopathy and muscle weakness). It has been reported that the improper folding and trafficking of alpha-glucosidase resulting from genetic mutations may account for a significant number of Pompe patients. […] We optimized this alpha-glucosidase assay in 1536-well plate format for identification of novel small molecule inhibitors or activators with structures other than the sugar analogs in order to develop new pharmacological chaperones. Previous assays of alpha-Glucosidase have utilized a non-natural fluorescent substrate to probe enzyme activity. The present assay measures enzyme activity on glycogen using a coupled-assay system to glucose oxidase.
# NCGC Assay Protocol Summary: This is an enzyme assay using glycogen from bovine liver (Sigma catalog #: G0885) as the substrate and recombinant human alpha-glucosidase as the enzyme preparation. Upon hydrolysis of the substrate, the glucose product can be detected using the Amplex Red Glucose Oxidase Assay Kit (Invitrogen catalog #: A22189). The product of this reaction can be read with a fluorescence plate reader with an excitation at 573 nm and an emission at 610 nm. Data were normalized to the controls for basal activity (without enzyme) and 100% activity (with enzyme). The AC50 values were determined from concentration-response data modeled with the standard Hill equation. Assay buffer for enzyme reaction: 50 mM citric acid (titrated with potassium phosphate to pH 5.0), 0.01% Tween-20 (pH 5.0 is an optimal condition for this enzyme assay) Assay buffer for Amplex Red reaction: Tris-HCl, pH 7.5 1536-well assay protocol for the alpha-glucosidase assay: (1) Add 2 ul/well alpha-glucosidase enzyme solution (4 nM final) (2) Add 23 nL compounds in DMSO solution. The final titration was 0.7 nM to 77 uM. (3) Add 1 ul of glycogen substrate solution (30 ug) (4) Incubate at 37 C for 40 min (5) Add 2 ul tris-HCl buffer with Amplex Red reagents (6) Incubate 45 min at room temperature. (7) Detect the assay plate in a ViewLux plate reader (PerkinElmer) with Ex=573 nm and Em=610nm. Keywords: Alpha-glucosidase, Pompe Disease, pharmacological chaperone, chaperone therapy, high throughput screening, alpha-glucosidase inhibitor, MLSMR, MLSCN, NIH Roadmap, qHTS and NCGC
# Potency is read from the fitted curve at half-maximal effect.
Structure (SMILES),Potency,"activity change, negative = inhibition"
COc1ccc(N/C=C/C(=O)c2cc(OC)c(OC)c(OC)c2)cc1,"inconclusive: 17.8 µM [inhibitor, partial curve]",–
COc1ccc(-c2cn3nc(N4CCC(C(=O)Nc5ccc(C)cc5)CC4)sc3n2)cc1,–,inactive: -4.84% [at 76.3 µM]
COc1ccc(N2CCN(c3ccnc4cc(Cl)ccc34)CC2)cc1,"inconclusive: 17.8 µM [inhibitor, partial curve]",–
Cc1ccc(C)c(-c2nc3ccc(N)cc3[nH]2)c1,"inconclusive: 24.9 µM [inhibitor, partial curve]",–
Cn1cc(Cl)c(C(=O)NNC(=S)Nc2cccc(Cl)c2)n1,"inconclusive: 28.2 µM [inhibitor, partial curve]",–
C(=N\Nc1nc2ccccc2[nH]1)/c1ccc2c(c1)OCO2,active: 15.8 µM,–
COc1ccc(C2C(CC(=O)O)=C(O)C(=O)N2c2ccccc2)cc1 (configuration not stated),active: 14 µM,–
CCCn1c(N/N=C\C=C\c2ccccc2)nc2c1c(=O)[nH]c(=O)n2C,"inconclusive: 7.03 µM [inhibitor, partial curve]",–
Cc1c(C(=O)N(Cc2ccc(N(C)C)cc2)CC2CCCO2)oc2ccc(Br)cc12 (configuration not stated),–,inactive: 3.19% [at 76.3 µM]
C/C(CC(=O)Nc1cccc(Br)c1)=N\NC(=O)c1ccc(O)cc1O,"inconclusive: 11.2 µM [inhibitor, partial curve]",–
Nc1nc(SCC(=O)Nc2ccc([N+](=O)[O-])cc2)[nH]c(=O)c1NC(=O)c1ccc(Br)cc1,"inconclusive: 35.5 µM [inhibitor, single point]",–
Cc1cc(/C=N/Nc2ccc([N+](=O)[O-])cn2)c(C)n1-c1ccc(C(=O)O)cc1,"inconclusive: 0.788 µM [inhibitor, full curve]",–
O=C(O)/C=C/c1ccc2c(-c3ccccc3)onc2c1,"inconclusive: 7.03 µM [activator, single point]",–
COc1ccc(/C(C)=N/NC(=S)NCCc2ccccc2)cc1,"inconclusive: 25.1 µM [inhibitor, single point]",–
CN(C)NC(=S)Nc1ccc(S(=O)(=O)N2CCCCC2)cc1,"inconclusive: 28.2 µM [inhibitor, single point]",–
Cc1cccc(NC(=S)NC(=O)c2cc(-c3ccccc3)nc3ccccc23)c1,–,inactive: -0.762%
Cc1ccc(/C=C2/NC(=O)N(c3ccccc3)C2=O)o1,"inconclusive: 39.8 µM [inhibitor, single point]",–
Cc1ccccc1C(=O)Nc1ccc(N2CCCC2)cc1,"inconclusive: 31.6 µM [inhibitor, partial curve]",–
CCc1noc(-c2ccc(N3CCCCC3)c([N+](=O)[O-])c2)n1,–,inactive: 0.892% [at 76.3 µM]
COc1ccc(OC)c(NC(=O)CCc2nc(-c3ccc(C)cc3)no2)c1,–,inactive: -4.1% [at 76.3 µM]
Cc1ccn2c(Nc3ccc4c(c3)OCCO4)c(-c3ccc(C)s3)nc2c1,"inconclusive: 3.16 µM [inhibitor, full curve]",–
O=c1c(S(=O)(=O)c2ccc(Cl)cc2)cn(Cc2ccc(F)cc2)c2ccc(F)cc12,"inconclusive: 11.2 µM [inhibitor, single point]",–
COc1cccc(/C=N/NC(=S)Nc2cccc(C(=O)O)c2)c1,"inconclusive: 14 µM [inhibitor, partial curve]",–

Structure (SMILES),Potency,"activity change, negative = inhibition"
COc1cc(OC)c(OC)cc1/C=N/NC(=S)NCC1CCCO1 (configuration not stated),"inconclusive: 17.6 µM [inhibitor, partial curve]",–
CCCn1c(N)c(N(C)C)c(=O)n(CC(=O)Nc2ccc(OC(F)(F)F)cc2)c1=O,"inconclusive: 25.1 µM [inhibitor, partial curve]",–
CCOc1ccccc1CN1CCN(Cc2cc3ccccc3[nH]2)CC1CCO (configuration not stated),"inconclusive: 12.6 µM [inhibitor, partial curve]",–
COc1cc(/C=N/NC(=O)c2cc(-c3c(C)nn(-c4ccccc4)c3C)n[nH]2)ccc1O,"inconclusive: 39.8 µM [inhibitor, partial curve]",–
COc1cccc(-c2cnc(NCc3cc(Cl)ccc3O)n2C)c1,"inconclusive: 24.9 µM [inhibitor, single point]",–
O=C(CSc1c2c(nc3ccccc13)CCC2)Nc1ccc(F)cc1F,–,inactive: 16.1% [at 76.3 µM]
COc1ccc(NC(=S)Nn2cnnc2)cc1OC,"inconclusive: 31.6 µM [inhibitor, single point]",–
Cc1ccccc1Oc1ncnc2oc(-c3ccccc3)cc12,–,inactive: -3.51%
CSc1ccc(/C=N/N2CCN(Cc3ccccc3Cl)CC2)cc1,"inconclusive: 50.1 µM [inhibitor, single point]",–
Cc1cc(C)c2c(-n3cccc3)c(NC(=O)OCc3ccccc3)sc2n1,–,inactive: -15.1%
COC(=O)C1=C(CS(=O)(=O)c2cc(Cl)ccc2OC)NC(=O)NC1c1ccc(O)c(OC)c1 (configuration not stated),"inconclusive: 39.8 µM [inhibitor, single point]",–
CN(C)/C=C1/NC(=S)NC1=O,"inconclusive: 3.55 µM [inhibitor, full curve]",–
Cc1nc(S(=O)(=O)N2CCOCC2)c(C#N)c(C)c1Cl,"inconclusive: 7.08 µM [inhibitor, single point]",–
C=CCNC(=S)/N=c1/ccccn1CC,"inconclusive: 31.6 µM [inhibitor, single point]",–
O=C1CC(=Nc2ccccc2)NN1c1ccccc1,"inconclusive: 39.5 µM [inhibitor, single point]",–
Cc1cc(C)c(S(=O)(=O)Nc2ccc(O)cc2)c(C)c1,active: 39.8 µM,–
Cc1nn(-c2cc(N3CCOCC3)ccc2N)c(=O)c2ccccc12,"inconclusive: 5.01 µM [inhibitor, full curve]",–
COCCOC(=O)c1c(C)oc2ccc(NS(=O)(=O)c3ccc(C)cc3)cc12,"inconclusive: 50.1 µM [inhibitor, single point]",–
O=C(Oc1ccccc1N1CCOCC1)c1sccc1Br,"inconclusive: 25.1 µM [inhibitor, partial curve]",–
Cc1ccc(Nc2c(-c3ccco3)nc3ccc(C)cn23)cc1,"inconclusive: 7.94 µM [inhibitor, partial curve]",–
COc1ccc(-n2nnnc2C2CCN(S(=O)(=O)c3cc(Cl)ccc3OC)CC2)cc1,–,inactive: 6.65% [at 76.3 µM]
N#Cc1nc(-c2ccc(OCc3ccccc3)cc2)oc1NCc1cccnc1,"inconclusive: 22.4 µM [inhibitor, single point]",–
O=c1oc2cc([N+](=O)[O-])ccc2nc1/C=C(O)/C=C/c1ccccc1,"inconclusive: 7.94 µM [inhibitor, full curve, poor fit]",–

Structure (SMILES),Potency,"activity change, negative = inhibition"
Cc1ccc(O)c(NC2=C(Cl)C(=O)N(Cc3ccccc3)C2=O)c1,"inconclusive: 25.1 µM [inhibitor, partial curve]",–
O=C(O)c1ccccc1/C=N/N1CCN(C2c3ccccc3-c3ccccc32)CC1,"inconclusive: 39.5 µM [inhibitor, single point]",–
Fc1ccc(C2N(c3ccccc3)C(=S)N3CCCN23)cc1 (configuration not stated),"inconclusive: 28 µM [inhibitor, single point]",–
COc1cccc(CNC(=O)CN(C)S(=O)(=O)c2cccc3cccnc23)c1,–,inactive: 1.77%
CCOc1cc(C2C3=C(CCCC3=O)Nc3ccc4ncccc4c32)ccc1O (configuration not stated),"inconclusive: 10 µM [inhibitor, partial curve]",–
CC(=O)Nc1ccc(OC(=O)c2cc([N+](=O)[O-])ccc2Cl)cc1,"inconclusive: 39.5 µM [inhibitor, single point]",–
Cc1cc(C(=O)NNc2ccc(F)cc2F)no1,"inconclusive: 3.98 µM [inhibitor, full curve]",–
Cc1ccc(NC(=O)CCCc2nnc3n(C)c(=O)c4sccc4n23)cc1C,–,inactive: -4.07% [at 76.3 µM]
COc1ccccc1-c1nnc(SCC(=O)NC2CCCCC2)n1C,"inconclusive: 11.2 µM [inhibitor, single point]",–
c1ccc(-n2cnc3cc(NCc4cccs4)ccc32)cc1,"inconclusive: 24.9 µM [inhibitor, partial curve]",–
COC(=O)c1[nH]c2cc(OC)ccc2c1N,active: 35.2 µM,–
O=C(NC(=S)Nc1ccccc1O)c1ccc(Cl)cc1Cl,"inconclusive: 50.1 µM [inhibitor, single point]",–
CC(C)=C1C(=O)NN(c2ccc(F)c(Cl)c2)C1=O,active: 24.9 µM,–
COc1ccc(C(c2c(C)n(C)n(-c3ccccc3)c2=O)c2c(C)n(C)n(-c3ccccc3)c2=O)cc1O,"inconclusive: 31.6 µM [inhibitor, partial curve] and inconclusive: 9.92 µM [inhibitor, partial curve]",–
O=c1[nH]cnc2sc3c(c12)CCN(Cc1ccccc1)C3,"inconclusive: 35.5 µM [activator, single point]",–
O=C(NC(=S)Nc1ccccc1N1CCCC1)c1ccc([N+](=O)[O-])cc1,"inconclusive: 14.1 µM [inhibitor, partial curve]",–
Cc1cc2n(n1)SC(Nc1cccc3ccccc13)N2 (configuration not stated),"inconclusive: 22.2 µM [inhibitor, single point]",–
Clc1ccc2nc(-c3ccc(Br)o3)c(Nc3ccc4c(c3)OCCO4)n2c1,"inconclusive: 11.2 µM [inhibitor, full curve]",–
Cc1c(OCC(=O)NC(Cc2c[nH]c3ccc(O)cc23)C(=O)O)ccc2c3c(c(=O)oc12)CCC3 (configuration not stated),"inconclusive: 3.98 µM [inhibitor, full curve]",–
COc1cc(OC)c(OC)cc1/C=N/Nc1nc2ccccc2[nH]1,"inconclusive: 2 µM [inhibitor, full curve, poor fit]",–
Cn1c(N/N=C/c2c[nH]c3ccccc23)nc2ccccc21,"inconclusive: 44.7 µM [inhibitor, single point]",–
